{"source": "PubChem BioAssay AID504339", "about": "(National Center for Advancing Translational Sciences (NCATS), 2011)", "note": "The whole screen tested about 390,000 compounds, of which about 17,000 (4.4%) were called active. Inconclusive results, whose numbers are uncertain, are shown with a selection of clear calls. The call rests on the fitted dose curve; in most records, active means well fitted inhibition curve with a large enough effect; inconclusive means small, poorly fitted or top-dose-only effect; inactive means no such curve, though single readings can be large or run the other way. Where the call is inconclusive, the potency comes from a doubtful curve fit. On the % scale 0 is the no-effect control and ±100 the full control effect; potency means the concentration at half of the fitted maximal effect; tags describe the fitted curve by direction and shape.", "data": [{"target": "Lysine-specific demethylase 4A (Homo sapiens) (UniProt O75164)", "sequence (O75164 whole entry, looked up, the tested form may be a part)": "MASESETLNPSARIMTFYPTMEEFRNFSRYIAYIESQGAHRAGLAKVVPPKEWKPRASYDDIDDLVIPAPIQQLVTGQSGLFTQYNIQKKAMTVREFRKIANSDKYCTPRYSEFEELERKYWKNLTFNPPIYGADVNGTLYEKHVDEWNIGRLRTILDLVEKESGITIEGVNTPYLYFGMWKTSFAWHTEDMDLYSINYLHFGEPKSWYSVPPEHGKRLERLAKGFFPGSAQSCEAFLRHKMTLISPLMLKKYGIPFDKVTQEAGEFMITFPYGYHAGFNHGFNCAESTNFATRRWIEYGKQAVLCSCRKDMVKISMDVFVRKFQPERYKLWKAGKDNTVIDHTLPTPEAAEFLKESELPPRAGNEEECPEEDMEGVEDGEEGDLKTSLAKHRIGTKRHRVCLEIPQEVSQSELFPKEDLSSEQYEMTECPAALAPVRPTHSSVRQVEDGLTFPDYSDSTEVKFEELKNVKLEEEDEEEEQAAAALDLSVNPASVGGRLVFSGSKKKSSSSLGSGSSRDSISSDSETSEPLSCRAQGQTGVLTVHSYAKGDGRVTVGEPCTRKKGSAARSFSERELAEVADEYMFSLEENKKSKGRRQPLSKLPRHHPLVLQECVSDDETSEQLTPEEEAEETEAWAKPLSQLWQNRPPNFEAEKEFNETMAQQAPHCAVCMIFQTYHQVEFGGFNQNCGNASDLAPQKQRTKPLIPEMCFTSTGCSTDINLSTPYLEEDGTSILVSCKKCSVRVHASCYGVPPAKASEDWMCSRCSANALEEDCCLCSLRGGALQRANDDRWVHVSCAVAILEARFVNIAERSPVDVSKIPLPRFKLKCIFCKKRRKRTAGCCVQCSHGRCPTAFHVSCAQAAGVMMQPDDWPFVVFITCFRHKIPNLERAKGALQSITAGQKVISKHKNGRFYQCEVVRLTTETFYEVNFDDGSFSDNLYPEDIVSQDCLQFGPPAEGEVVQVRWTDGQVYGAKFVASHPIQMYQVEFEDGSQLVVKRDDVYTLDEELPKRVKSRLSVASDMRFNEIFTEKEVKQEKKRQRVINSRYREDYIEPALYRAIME", "experiment": "qHTS Assay for Inhibitors of JMJD2A-Tudor Domain; further: nearly all actives have a fitted effect of over 50% in size", "conditions": "AlphaScreen JMJD2A-Tudor / H3K4me3 peptide binding; activity change, negative = inhibition: at 114 µM (top of the series)", "values": [{"smiles": "O=C(CN1C(=O)CC(c2ccco2)Sc2ccccc21)Nc1ccc2c(c1)OCCO2", "note": "(stereo unspecified)", "Potency": "inconclusive: 89.1 µM [inhibitor, partial curve, poor fit]"}, {"smiles": "CN(C)c1ccc(/C=C/C=C2/SC(=S)N(c3ccccc3)C2=O)cc1", "Potency": "active: 5.62 µM"}, {"smiles": "COC(=O)c1ccccc1NC(=O)C1CCCN(c2nnc(C)c3c(C)n(-c4ccccc4)nc23)C1", "note": "(stereo unspecified)", "activity change, negative = inhibition": "inactive: -3.45%"}, {"smiles": "CCn1cc(C(=O)O)c(=O)c2cc(F)c(N3CCN(C(=S)NC(=O)c4ccc(Br)cc4)CC3)cc21", "activity change, negative = inhibition": "inactive: -14.3% [at 11.4 µM]"}, {"smiles": "O=[N+]([O-])c1ccccc1/C=C/CN1CCSCC1", "Potency": "active: 12.6 µM"}, {"smiles": "Cc1cc(C(=O)NCCCn2ccnc2)sc1-c1ccccc1", "Potency": "inconclusive: 79.4 µM [inhibitor, partial curve]"}, {"smiles": "Cc1ccc(C(=O)C2=C(O)C(=O)N(Cc3ccccc3)C2c2cccnc2)o1", "note": "(stereo unspecified)", "Potency": "active: 50.1 µM"}, {"smiles": "O=C(C1=C[C@H](c2ccc(C(F)(F)F)cc2)C[C@H](OCc2ccc(CO)cc2)O1)N1CCN(Cc2ccccc2)CC1", "Potency": "inconclusive: 10 µM [inhibitor, full curve]"}, {"smiles": "NNC(=O)c1cc2nc(-c3cccs3)cc(C(F)(F)F)n2n1", "Potency": "inconclusive: 89.1 µM [inhibitor, single point]"}, {"smiles": "Cc1ccc(C(c2nnnn2Cc2cccs2)N2CCN(C(=O)c3ccco3)CC2)cc1", "note": "(stereo unspecified)", "Potency": "inconclusive: 89.1 µM [inhibitor, single point]"}, {"smiles": "CC(C)(C)NC(=O)CSc1ncnc2c1nnn2Cc1ccccc1Cl", "Potency": "active: 50.1 µM"}, {"smiles": "COc1ccc(-c2noc(CSc3nnc(C)n3-c3ccc(C)c(C)c3)n2)c(OC)c1", "activity change, negative = inhibition": "inactive: -28.8%"}, {"smiles": "COCc1cc(C)nc(OCC(=O)N/N=C/c2ccccc2O)c1C#N", "activity change, negative = inhibition": "inactive: -14.8%"}, {"smiles": "N#C/C(=C\\c1cc(Br)c(O)c(Br)c1)c1nc2ccccc2c(=O)[nH]1", "Potency": "inconclusive: 56.2 µM [inhibitor, partial curve, poor fit]"}, {"smiles": "O=C1NN(c2ccccc2)C(=O)/C1=C/c1ccc(Sc2ccc(Cl)cc2)o1", "Potency": "inconclusive: 39.8 µM [inhibitor, partial curve]"}, {"smiles": "O=C1C(=O)c2c(ccc3ccccc23)-c2ccccc21", "Potency": "inconclusive: 28.2 µM [inhibitor, partial curve]"}, {"smiles": "CN(C)CCN(C(=O)c1ccc2c(c1)OCCO2)c1nc2c(Cl)cccc2s1", "Potency": "inconclusive: 39.8 µM [inhibitor, full curve]"}, {"smiles": "COC(=O)CCC(=O)OC1(C)C(=O)C=C2C=C(C3CC3)N(Cc3ccccc3)C=C2C1=O", "note": "(stereo unspecified)", "Potency": "inconclusive: 89.1 µM [inhibitor, single point]"}, {"smiles": "COc1ccc(-c2nc(CN3CCC(c4ccccc4)CC3)c(C)o2)cc1OC", "Potency": "inconclusive: 100 µM [inhibitor, partial curve, poor fit]"}, {"smiles": "CCCSc1nnc2c(n1)OC(c1cccs1)Nc1ccc(Br)cc1-2", "note": "(stereo unspecified)", "Potency": "inconclusive: 56.2 µM [inhibitor, partial curve, poor fit]"}, {"smiles": "CC1CC(C)(C)n2c(O)c(N=NC(N)=S)c3cccc1c32", "note": "(stereo unspecified)", "Potency": "inconclusive: 56.2 µM [inhibitor, partial curve]"}, {"smiles": "COc1ccccc1CNC(=O)Cn1c(=O)nc(-c2ccccc2)c2ccccc21", "activity change, negative = inhibition": "inactive: 6.95%"}, {"smiles": "COCc1nnc(NC(=O)CCSc2ccccc2)s1", "activity change, negative = inhibition": "inactive: -7.19%"}, {"smiles": "N#Cc1c(NC(=S)NC(=O)Cc2cccs2)sc2c1CCCCC2", "Potency": "inconclusive: 44.7 µM [inhibitor, partial curve]"}, {"smiles": "C/C(=N\\NC(=S)NC(C)C)c1ccc(Cl)s1", "Potency": "inconclusive: 39.8 µM [inhibitor, partial curve]"}, {"smiles": "CCN(CC)S(=O)(=O)c1ccc(OC)c(NC(=O)c2ccc(N3CCCC3=O)cc2)c1", "activity change, negative = inhibition": "inactive: 4.87%"}, {"smiles": "CN(C)c1ccc(/C=N/c2cc(-c3ccccc3)nn2-c2ccccc2)cc1", "Potency": "inconclusive: 8.91 µM [inhibitor, full curve]"}, {"smiles": "CCOCCCNCC(=O)N1CCN(S(=O)(=O)c2ccc(C)cc2)CC1", "Potency": "active: 3.98 µM"}, {"smiles": "COC(=O)c1ccc2c(=O)n(CCCCCC(=O)N3CCN(c4ccc(Cl)cc4)CC3)c(=O)[nH]c2c1", "activity change, negative = inhibition": "inactive: -28%"}, {"smiles": "CCOc1ccc(Cn2c3ccc(OC)cc3c3nc4ccccc4nc32)cc1", "Potency": "inconclusive: 70.8 µM [inhibitor, single point]"}, {"smiles": "CCN(CC)c1ccc(/C=C/C(=O)c2cccnc2)cc1", "Potency": "inconclusive: 35.5 µM [inhibitor, partial curve]"}, {"smiles": "CCCS(=O)(=O)N1CC(=O)N(c2ccc(C)c(Cl)c2)C(C)(C(=O)NC2CCCCCC2)C1", "note": "(stereo unspecified)", "activity change, negative = inhibition": "inactive: -5.94%"}, {"smiles": "Cc1cccc(Nc2nc(N)nc(CN3CCN(c4ccccc4)CC3)n2)c1", "Potency": "active: 56.2 µM"}, {"smiles": "CN(C1CCCCC1)S(=O)(=O)c1ccc(NC(=O)c2ccco2)cc1", "Potency": "inconclusive: 79.4 µM [inhibitor, partial curve]"}, {"smiles": "COC(=O)c1ccc(NC(=O)c2cc(-c3ccccn3)nc3ccccc23)cc1", "activity change, negative = inhibition": "inactive: -34.7%"}, {"smiles": "O=C(CS(=O)(=O)c1ccccc1)NCc1ccc(Cl)cc1", "activity change, negative = inhibition": "inactive: 9.93%"}, {"smiles": "CN1C(=O)C2(c3ccccc31)N(c1cccc(C(F)(F)F)c1)C(=O)CS2(=O)=O", "note": "(stereo unspecified)", "activity change, negative = inhibition": "inactive: -9.71%"}, {"smiles": "CC(C)CCN1C(=O)c2ccc(C(=O)Nc3ccc(Br)cc3C(=O)O)cc2C1=O", "Potency": "active: 56.2 µM"}, {"smiles": "CCN1CCN(c2ncc3c(n2)CCN(Cc2ccccc2C)C3)CC1", "Potency": "inconclusive: 79.4 µM [inhibitor, single point]"}, {"smiles": "O=C(Cn1nnc(-c2ccccc2)n1)N/N=C/c1cccc([N+](=O)[O-])c1O", "Potency": "inconclusive: 39.8 µM [inhibitor, partial curve]"}, {"smiles": "O=C(Oc1ccccc1)c1ccc(NC(=O)c2ccco2)cc1", "Potency": "inconclusive: 31.6 µM [inhibitor, single point]"}, {"smiles": "COCC1CCCCN1Cc1cn[nH]c1-c1ccc2cc(OC)ccc2c1", "note": "(stereo unspecified)", "activity change, negative = inhibition": "inactive: -14.4%"}, {"smiles": "Cc1ccc(CS(=O)(=O)c2ncc(Cl)c(C(=O)Nc3nnc(C(C)C)s3)n2)cc1", "Potency": "inconclusive: 10 µM [inhibitor, full curve, poor fit]"}, {"smiles": "CC1(C)CC(N2CCC(=O)NC2=S)CC(C)(C)N1", "Potency": "inconclusive: 31.6 µM [inhibitor, single point]"}, {"smiles": "CCOc1ccc(C(=O)NCC(=O)OCCN2C(=O)c3ccccc3C2=O)cc1OCC", "activity change, negative = inhibition": "inactive: 0.98%"}, {"smiles": "COc1cc(C(=O)NCC(c2ccc(F)cc2)N2CCOCC2)ccc1OCc1ccccc1Cl", "note": "(stereo unspecified)", "Potency": "inconclusive: 56.2 µM [inhibitor, partial curve]"}, {"smiles": "CCc1ccc(C2c3c(-c4ccccc4O)n[nH]c3C(=O)N2Cc2cccnc2)cc1", "note": "(stereo unspecified)", "activity change, negative = inhibition": "inactive: -32.4%"}, {"smiles": "CCC(=O)N1c2ccc(S(=O)(=O)CCC(=O)Nc3ccc(OC)cc3OC)cc2CC1C", "note": "(stereo unspecified)", "Potency": "inconclusive: 44.7 µM [inhibitor, partial curve]"}, {"smiles": "Clc1ccc(-n2cccc2CN2CCc3c([nH]c4ccccc34)C2c2ccccn2)nc1", "note": "(stereo unspecified)", "Potency": "active: 35.5 µM"}, {"smiles": "O=C1NCCN1c1ccc(CN2CCN(C3CCCCC3)C(CCO)C2)cc1", "note": "(stereo unspecified)", "Potency": "inconclusive: 28.2 µM [inhibitor, partial curve]"}, {"smiles": "COC(=O)/C=C1/SC(=NC(=O)c2ccccc2)NC1=O", "Potency": "inconclusive: 89.1 µM [inhibitor, single point]"}, {"smiles": "Cc1ccc(Cl)cc1-n1nnc(-c2nc(-c3ccc4c(c3)OCO4)no2)c1C", "activity change, negative = inhibition": "inactive: -11.7%"}, {"smiles": "CCCCNS(=O)(=O)c1ccc2nc(-c3cccnc3)cc(C(=O)NCCCOC)c2c1", "Potency": "inconclusive: 35.5 µM [inhibitor, single point]"}, {"smiles": "CC1CCCCC1NC(=O)/C(C#N)=C/C=C/c1ccccc1[N+](=O)[O-]", "note": "(stereo unspecified)", "Potency": "inconclusive: 25.1 µM [inhibitor, single point]"}, {"smiles": "O=C1N=C(N2CCOCC2)S/C1=C/c1ccc(-c2ccc(F)cc2)o1", "activity change, negative = inhibition": "inactive: -11.2%"}, {"smiles": "CC(NS(=O)(=O)c1ccc2c(c1)c(=O)n(C)c(=O)n2C)C(=O)NC1CCCCC1", "note": "(stereo unspecified)", "activity change, negative = inhibition": "inactive: -16.9%"}, {"smiles": "CNC(=O)NNC(=O)c1nc(-c2ccccc2)c(C)o1", "Potency": "inconclusive: 25.1 µM [inhibitor, partial curve]"}, {"smiles": "CCOC(=O)C1=C(COC(=O)CCOc2ccccc2)NC(=O)NC1C", "note": "(stereo unspecified)", "Potency": "active: 100 µM"}, {"smiles": "COc1ccc(-c2nc(C#N)c(N3CCN(c4ccccc4)CC3)o2)cc1", "Potency": "inconclusive: 8.91 µM [inhibitor, full curve]"}, {"smiles": "CCOC(=O)c1c(NC(=O)c2cc(-c3ccc(OC)c(OC)c3)on2)sc2c1CCCC2", "activity change, negative = inhibition": "inactive: 0.341%"}, {"smiles": "CCCCCCCN(c1ccccc1)[C@@H]1C[C@H]2CCCC(=O)N3CC[C@@H](C1)[C@@H]23", "Potency": "active: 44.7 µM"}, {"smiles": "Cc1ccc(-c2cc(-c3ccccc3Cl)c(C#N)c(N)n2)o1", "Potency": "inconclusive: 89.1 µM [inhibitor, single point]"}, {"smiles": "COc1ccc2c(c1)[N+](C)(C)C(C)(C)C=C2C", "Potency": "active: 17.8 µM"}, {"smiles": "CCc1cc(/C(Cc2ccc3ccccc3n2)=N\\O)c(O)cc1O", "Potency": "inconclusive: 63.1 µM [inhibitor, partial curve]"}, {"smiles": "Cc1ccc(CN2CCN(Cc3ccc4cc(F)ccc4n3)CC2CCO)o1", "note": "(stereo unspecified)", "activity change, negative = inhibition": "inactive: -8.49%"}, {"smiles": "COCCN(Cc1ccco1)C(=O)C1CCCN(c2ncnc3c2nc2n3CCCCC2)C1", "note": "(stereo unspecified)", "activity change, negative = inhibition": "inactive: -8.27%"}, {"smiles": "COc1ccc(Cl)cc1N1CCN(CCNC(=O)Nc2ccccc2C)CC1", "Potency": "inconclusive: 14.1 µM [inhibitor, full curve, poor fit]"}, {"smiles": "Cc1ccc(-c2onc(C)c2C)cc1S(=O)(=O)Nc1ccccn1", "activity change, negative = inhibition": "inactive: -2.92%"}, {"smiles": "Cc1ccc(CN2C(=O)C(CC(C)C)Nc3ncnc(N4CCN(c5ccccn5)CC4)c32)cc1", "note": "(stereo unspecified)", "Potency": "active: 79.4 µM"}, {"smiles": "CCCOC(=O)c1ccc(Oc2cn[nH]c2-c2ccc(OCC(=O)NN)cc2O)cc1", "Potency": "inconclusive: 44.7 µM [inhibitor, partial curve]"}, {"smiles": "O=C(Nc1cc(SCC(O)CO)cc([N+](=O)[O-])c1)c1ccc(-n2cnnn2)cc1", "note": "(stereo unspecified)", "Potency": "inconclusive: 100 µM [inhibitor, single point]"}]}]}
